According to the supplement of paper PMC10338343:
± gives the standard deviation. The list shows a part of the results, in another mix than the full data.

Tested on: MIWI (PIWIL1) piRISC loaded with L1MC piRNA (30 nt)
Experiment: pre-steady-state target cleavage rate (min^-1); MIWI and MILI are mouse PIWI proteins and EfPiwi is from a freshwater sponge; tags in brackets are library labels; higher = faster piRNA-guided slicing of the target
Conditions: guide: L1MC piRNA 5'p-UAACUAAAUACUAUGCAAGCUGUAGGUCCU; auxiliary factor: 500 nM mouse GTSF1
Procedure: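 Cleave-'n-Seq: a library of target RNAs (target site embedded in constant flanks, ACAGCATTCCGCGTTAGTGATATCCG... 5' flank; DNA-blocked outside the site) at 0.1 nM was incubated with 1 nM active mouse MILI or MIWI piRISC (synthetic 5'-monophosphorylated piRNA guide) with or without 500 nM mouse GTSF1 at 33 °C for 1 min to 16 h. Uncleaved targets were sequenced and normalised to non-target controls, and the pooled three trials were fitted to a burst-and-steady-state model to give the pre-steady-state cleavage rate (min^-1; k3 is constrained to at most 1e-4). Sequence is the target site only; target names encode pairing extent (gX:gY) and contiguous / 1-mismatch / 2-mismatch / bulge geometry. Fits with R² ≤ 0 are excluded.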

Sequence | pre-steady-state target cleavage rate
UCGACCUACAGCUUGCAUAGUUAAAUCAAA [g10:g28:cont:t1A] | 0.157 ± 0.044
UCCACCUACAGCUUGCAAAGUAUUUUGUUA | 0.517 ± 0.04
UCCUGCUACAGCUUCGAUAGUAUUUAGUUA | 0.575 ± 0.047
UCCUGGAUGAGCUUGCAUAGUAAUUUAGUUA | 0.045 ± 0.0059
UCCACCUACUGCUUCCAUAGUAUUUAGUUA | 0.074 ± 0.019
UCCUGGAUGUGCUUGCAUAGUUUUUAGUUA | 0.0222 ± 0.0075
UCCUCCUACAGCUUGCUAAGUAUUUAGUUA | 0.226 ± 0.021
UCCUCCUACAGCAAGCAUAGUAUUUUCAAA | 0.187 ± 0.041
UCCUCCUACAGUUUGCAUAGUAUUUAGUUA | 1.15 ± 0.039
AGGACCAUGAGCUUGCAUAGUAUUUUCAAA | 0.0495 ± 0.017
UCCACCUACAGCUUGCAUACUUUUUAGUUA | 0.0393 ± 0.0087
UCCUGGUACUGCUUGCAUAGUAUAUAGUUA | 0.2 ± 0.038
AGGACCUACAGCUUGCUUAGUAUUUAGAUA | 0.642 ± 0.067
UCCUGGAUCACCUUGCAUAGUAUUUAGAAA | 0.152 ± 0.043
UCCUGGAUGAGCUUGGAAAGUAUUUAGUUA | 0.218 ± 0.019
UCCUGGAUGACCUUGCAUAGUAAUUAGUUA | 0.0312 ± 0.0094
AGGACCUACAGCUAGCAUAGUAUAUAGUUA | 0.639 ± 0.065
UCCUGGAUGUCGAACGUAUCUUUUAGUUA | < 0.0001
UCGACCUACAGCUUGCAUUCUAUUUAGUAA | 0.184 ± 0.04
UCCUCCUAGAGCUUGCAUAGUAAUUAGUUA | 0.745 ± 0.079
UCCUCCUACAGCUUGCAUAUAUUUAGUUA | 0.395 ± 0.037
UCCUGGUACAGCUUGCAAAGUAUUUUGUUA | 0.372 ± 0.046

Same assay, conditions: guide: L1MC piRNA 5'p-UAACUAAAUACUAUGCAAGCUGUAGGUCCU; auxiliary factor: none (no GTSF1)

Sequence | pre-steady-state target cleavage rate
UCCACCUACAGCUUGCAAAGUAUUUUGUUA | 0.0118 ± 0.0016
UCCUGCUACAGCUUCGAUAGUAUUUAGUUA | 0.00314 ± 0.0022
UCCUGGAUGAGCUUGCAUAGUAAUUUAGUUA | 0.00926 ± 0.0016
UCCACCUACUGCUUCCAUAGUAUUUAGUUA | 0.00376 ± 0.0014
UCCUGGAUGUGCUUGCAUAGUUUUUAGUUA | 0.016 ± 0.0042
UCCUCCUACAGCUUGCUAAGUAUUUAGUUA | 0.00288 ± 0.0013
UCCUCCUACAGUUUGCAUAGUAUUUAGUUA | 0.0529 ± 0.0094
UCCACCUACAGCUUGCAUACUUUUUAGUUA | 0.00562 ± 0.0019
UCCUGGUACUGCUUGCAUAGUAUAUAGUUA | 0.0161 ± 0.0041
AGGACCUACAGCUUGCUUAGUAUUUAGAUA | 0.019 ± 0.005
UCCUGGAUGACCUUGCAUAGUAAUUAGUUA | 0.00375 ± 0.0029
AGGACCUACAGCUAGCAUAGUAUAUAGUUA | 0.0163 ± 0.0043
UCCUGGAUGUCGAACGUAUCUUUUAGUUA | < 0.0001
UCGACCUACAGCUUGCAUUCUAUUUAGUAA | 0.00296 ± 0.0022
UCCUCCUAGAGCUUGCAUAGUAAUUAGUUA | 0.0146 ± 0.0025
UCCUCCUACAGCUUGCAUAUAUUUAGUUA | 0.00226 ± 0.0021
UCCUGGUACAGCUUGCAAAGUAUUUUGUUA | 0.0204 ± 0.0041
